We go through 58 molecules from publication PMC4336329 (PLoS ONE, 2015).

Out of some 310,000 compounds screened, about 14,000 (4.5%) showed an effect of 50% or more. Effects have a minus sign here. The list shows a part of the results.
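Further: peak tail current of the secondary pulse compared with the same well before compound.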

The target of this test is human ether-à-go-go-related gene (hERG) potassium channel (human, UniProt Q12809). Briefly: primary screen, population patch clamp on CHO cells stably expressing hERG.
Sequence of human ether-à-go-go-related gene (hERG) potassium channel (Q12809 whole entry, looked up): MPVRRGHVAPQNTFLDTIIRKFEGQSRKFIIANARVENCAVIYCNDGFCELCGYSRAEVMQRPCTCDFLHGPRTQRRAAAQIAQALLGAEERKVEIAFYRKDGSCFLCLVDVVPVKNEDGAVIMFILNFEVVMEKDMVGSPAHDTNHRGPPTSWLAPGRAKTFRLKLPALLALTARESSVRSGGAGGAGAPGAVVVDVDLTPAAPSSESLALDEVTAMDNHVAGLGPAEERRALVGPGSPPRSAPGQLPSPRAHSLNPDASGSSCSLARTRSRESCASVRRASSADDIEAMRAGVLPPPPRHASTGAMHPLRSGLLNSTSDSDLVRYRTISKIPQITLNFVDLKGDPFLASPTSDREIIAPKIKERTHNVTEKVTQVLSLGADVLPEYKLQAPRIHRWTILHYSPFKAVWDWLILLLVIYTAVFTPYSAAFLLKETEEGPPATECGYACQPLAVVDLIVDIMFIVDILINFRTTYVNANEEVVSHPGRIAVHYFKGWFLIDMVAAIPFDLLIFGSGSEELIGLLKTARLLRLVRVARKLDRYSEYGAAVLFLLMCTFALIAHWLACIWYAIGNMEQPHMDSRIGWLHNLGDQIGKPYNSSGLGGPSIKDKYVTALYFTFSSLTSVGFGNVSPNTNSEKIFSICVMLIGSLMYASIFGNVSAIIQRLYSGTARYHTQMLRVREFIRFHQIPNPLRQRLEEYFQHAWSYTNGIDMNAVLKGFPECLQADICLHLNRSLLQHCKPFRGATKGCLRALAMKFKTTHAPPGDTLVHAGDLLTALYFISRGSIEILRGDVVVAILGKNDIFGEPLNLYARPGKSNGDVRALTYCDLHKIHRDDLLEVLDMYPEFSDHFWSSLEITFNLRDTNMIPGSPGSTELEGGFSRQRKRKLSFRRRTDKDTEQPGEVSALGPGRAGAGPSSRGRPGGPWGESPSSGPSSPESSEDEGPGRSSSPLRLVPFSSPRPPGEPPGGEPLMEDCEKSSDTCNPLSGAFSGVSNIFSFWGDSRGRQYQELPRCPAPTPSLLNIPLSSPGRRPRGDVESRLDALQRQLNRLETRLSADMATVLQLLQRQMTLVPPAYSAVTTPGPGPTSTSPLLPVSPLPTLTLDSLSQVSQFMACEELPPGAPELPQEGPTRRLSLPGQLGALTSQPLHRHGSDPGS
`O=C(Nc1ccc(F)cc1)c1cccnc1`: the “hERG current change (%, negative = inhibition) at 10uM” value stood at 4.76%.
`C[C@H]1CC[C@]2(O[C@H](CCO)C[C@@H](O)[C@@H]2O)O1`: the “hERG current change (%, negative = inhibition) at 10uM” value came out at 2.21%.
With `CC(Sc1ccc(Cl)cc1)C(=O)Nc1ccccc1C(=O)N1CCOCC1` (stereo not shown), the “hERG current change (%, negative = inhibition) at 10uM” value came out at 0.248%.
Consider `Cc1ccc(CCNC(=O)CN(c2cc(C)cc(C)c2)S(=O)(=O)c2c(C)noc2C)cc1`, for which the “hERG current change (%, negative = inhibition) at 10uM” value was found to be 23%.
Under `CCC(C)(C(=O)NC1CCCCC1)N(Cc1ccco1)C(=O)CC1NC(=O)NC1=O` (stereo not shown) stands 5.88%; under `C/C(N)=C(/C#N)C(=O)COC(=O)CNS(=O)(=O)c1ccc(F)c(F)c1F`, 16.2%; under `CCCOc1ccc(C(=O)NCCN2CCOCC2)cc1.Cl`, 11.1%.
The value for `Cc1ccc(S(=O)(=O)N2CCCCC2)cc1C(=O)NCCN1CCOCC1` was -0.54%; that for `Oc1ccc(Cl)cc1/C=N/c1nc2ccccc2[nH]1` was 11.7%.
For the molecule `c1ccc(Nc2nnc(-c3cccc4ccccc34)o2)cc1`, the “hERG current change (%, negative = inhibition) at 10uM” value amounted to 6.85%.
For the molecule `CCOC(=O)CSc1nc2cc(C(=O)NCc3ccco3)ccc2c(=O)n1C1CCCCC1`, the “hERG current change (%, negative = inhibition) at 10uM” value amounted to 6.93%.
Under `Cc1c(C)c2ccc(O[C@@H]3O[C@H](CO)[C@@H](O)[C@H](O)[C@H]3O)c(C)c2oc1=O` stands 11.7%.
On to `Cc1nc(CC(C)C)cc(C(=O)N2CCCC(CNS(=O)(=O)c3cccs3)C2)n1` (stereo not shown), for which the “hERG current change (%, negative = inhibition) at 10uM” value was -20.8%.
Under `Cc1ccccc1-c1cc(C(=O)O)nn1CC1CC(c2cccc([N+](=O)[O-])c2)=NO1` (stereo not shown) stands 19.7%; under `CC(NC(=O)COC(=O)COc1cccc2c1OC(C)(C)C2)c1ccccc1` (stereo not shown), 6.98%; under `S=c1[nH]ccn1-c1cccc(Cl)c1Cl`, 25.7%.
The value for `C/C(=N/NC(=O)C(=O)N/N=C(/C)c1ccccc1)c1ccccc1` was 57.2%.
Under `Nc1cc(N)nc(CS)n1` stands 3.39%; under `CCOc1ncccc1C(=O)Nc1ccc(-c2cn3ccsc3n2)cc1`, 6%; under `COc1cc(C)c(S(=O)(=O)NCc2ccc3c(c2)OCO3)cc1C`, -16.4%.
Consider `CCCc1nc(-c2ccc(-c3ccc(F)cc3)cc2)no1`, for which the “hERG current change (%, negative = inhibition) at 10uM” value is listed as 7.85%.
The value for `Cn1cc(CN2CCN(c3ccccc3)CC2)c2ccccc21` was -54%; that for `S=C(Nc1ccccc1)N1CCCN1c1ccccc1` was 27.5%.
As for `COc1ccccc1NS(=O)(=O)c1ccc(C)c(NC(=O)NCCCl)c1`, the “hERG current change (%, negative = inhibition) at 10uM” value was -14.2%.
The value for `Cl.O=C(Cc1ccc(Cl)cc1)NCCN1CCCC1` was -21.9%.
`Cc1ccccc1NC(=O)CSCCO`: the “hERG current change (%, negative = inhibition) at 10uM” value was determined as 12.7%.
Turning to `COCCCNC(=O)c1c[nH]c2ccc(S(=O)(=O)N3CCC4(CC3)OCCO4)cc2c1=O`, the “hERG current change (%, negative = inhibition) at 10uM” value is 19%.
The value for `O=C(CCN1C(=O)c2ccccc2C1=O)Nc1ccc(-c2nc3ccccc3s2)cc1` was 25%; that for `Cc1ccccc1NCC(=O)N/N=C\c1ccc2c(c1)OCO2` was -0.637%.
The value for `Cc1ccc(-c2cc(C(=O)O)n[nH]2)o1` was 8.06%.
The value for `CC(=O)/C(N=Nc1ccc(SC(F)F)cc1)=C(\C)O` was -10.5%; that for `CCOC(=O)c1c(C)[nH]c(C(=O)/C(C#N)=C/c2ccc(OC(F)F)c(OC)c2)c1C` was 15.6%.
In the case of `COc1ccccc1N1CCN(Cc2ccc(OC)c(OC)c2OC)CC1`, the “hERG current change (%, negative = inhibition) at 10uM” value is -35.8%.
For the molecule `CCNC(=O)COC(=O)/C=C/c1c(C)nn(Cc2cccc(OC)c2)c1Cl`, the “hERG current change (%, negative = inhibition) at 10uM” value stood at 12%.
The value for `CC(Cc1cccs1)NC(=S)Nc1ccc(Cl)cc1` (stereo not shown) was 14.6%; that for `CN(C(=O)CSc1ccccc1C(=O)O)C1CCCCC1` was -42.7%; that for `CCOCCCNC(=O)CSCc1nc(-c2ccc(SC)cc2)oc1C` was -10.3%.
The value for `O=C(O)c1cc(Oc2ccc(C(F)(F)F)cc2Cl)ccc1[N+](=O)[O-]` was 23.9%.
The value for `Cc1nc(Oc2ccc(Cl)cc2)c2oc3ccccc3c2n1` was -0.241%.
On to `O=C(Cc1cc(=O)[nH]c(=O)[nH]1)NCCN1CCOCC1`, for which the “hERG current change (%, negative = inhibition) at 10uM” value was 9.37%.
Turning to `CN(C)S(=O)(=O)c1cccc(NC(=O)c2ccc(N3CCOCC3)c([N+](=O)[O-])c2)c1`, the “hERG current change (%, negative = inhibition) at 10uM” value was -23.3%.
Under `Br.C=CCN1CCc2c(cc(O)c(O)c2Cl)C(c2ccccc2)C1` (stereo not shown) stands -41%; under `c1csc(-c2cn3ccc4ccccc4c3n2)c1`, 6.29%.
Under `CCOC(=O)C1CCN(C(=O)c2ccc3c(c2)S(=O)(=O)c2ccccc2C3=O)CC1` stands -76.6%; under `CCOc1ccc(CCNC(=O)CN2C(=O)CCSc3ccccc32)cc1OCC`, 7.81%.
The value for `COc1ccc(Cl)cc1C(=O)NCc1cnn(C)c1C` was -3.69%; that for `COc1ccc(NC(=O)c2ccc(OC)c(S(=O)(=O)N3CCCCC3C)c2)cn1` (stereo not shown) was -5.77%; that for `COc1cc(C(C(=O)NC2CCCC2)N(Cc2ccco2)C(=O)c2snc(C(N)=O)c2N)cc(OC)c1OC` (stereo not shown) was -8.38%.
For `CSc1ncccc1C(=O)Nc1cccc(C)n1`, the “hERG current change (%, negative = inhibition) at 10uM” value came out at 9.89%.
Turning to `O=C(NNC(=O)c1ccccc1OCc1ccc(F)cc1)c1ccccc1O`, the “hERG current change (%, negative = inhibition) at 10uM” value came out at 14.6%.
In the case of `O=C(COC(=O)c1cc2ccccc2o1)NCc1ccco1`, the “hERG current change (%, negative = inhibition) at 10uM” value was determined as 0.657%.
In the case of `O=CC1=C(N2CCOCC2)/C(=C\c2ccccc2)CC1`, the “hERG current change (%, negative = inhibition) at 10uM” value was 16.6%.
The value for `COc1ccc2c(c1)c(=O)oc1cc(OCC(=O)N3CCCC(C)C3)ccc12` (stereo not shown) was -4.74%; that for `COc1ccc(S(=O)(=O)N2CCOC2CNC(=O)C(=O)NCc2ccc(F)cc2)cc1OC` (stereo not shown) was -1.87%.
The value for `Cc1cc(NS(=O)(=O)c2cccs2)no1` was -3.03%.
Under `CCCS(=O)(=O)c1nc(S(=O)(=O)c2ccc(Cl)cc2)c(N2CCC(O)CC2)s1` stands -46.9%; under `CCCOc1ccc(C(=O)CCNc2ccc(C)c(Cl)c2)cc1`, -2.42%; under `Cc1ccc2c(=O)cc(C(=O)NC3CCS(=O)(=O)C3)oc2c1` (stereo not shown), 15.5%.
